# According to PubChem BioAssay AID463173 (ICCB-Longwood Screening Facility, Harvard Medical School, 2010):
# Among all 52,000 compounds or so, about 1,700 (3.3%) were called active. Cut-off read from the data, not from the text of the source: active = survival mostly below about 52% (no sharp cut-off); inactive = mostly above about 56%. This is one part of the list.
# System: Wild type
# Experiment: S. aureus survival, RN4220 and DeltatarO strains – OD600, teichoic acid synthesis inhibitors, primary screen (AID 463173)
# Conditions: S. aureus RN4220 wild type/DeltatarO growth, OD600, 18 h, active compounds read low, screened at 18.75 µg/mL (by protocol)
row,Compound,survival
1,Cc1nc2scc(C)n2c(=O)c1S(=O)(=O)NCc1ccccc1Cl,inactive: 168%
2,O=C1NN=C(Cc2ccccc2)C1CCO (stereo not given),inactive: 101%
3,CC1=C(C(=O)OC2CCCC2)C(c2ccc(F)cc2F)CC(=O)N1 (stereo not given),inactive: 99%
4,Cc1ccc(CS(=O)(=O)c2cn(CC(=O)N(C)c3ccccc3)c3ccccc23)cc1,inactive: 93%
5,O=C1C2C3c4ccccc4C(c4ccccc43)C2C(=O)N1Cc1ccccn1 (stereo not given),inactive: 111%
6,CC(=O)Nc1ccc(NC(=O)CCCc2nc(-c3ccc(C(C)(C)C)cc3)no2)cc1,inactive: 82%
7,CC(=O)c1ccc(N2C(=O)N(Cc3cccc(C(F)(F)F)c3)c3ccccc3S2(=O)=O)cc1,inactive: 77%
8,COc1ccc(N(Cc2cccs2)C(=O)c2ccccc2C)cc1,inactive: 87%
9,Cc1ccc(NC(=O)c2cc(C)nn2-c2ccccc2)cc1,inactive: 118%
10,CC1(C)CC(=O)C2=C(C1)OC(N)=C(C#N)C2c1ccc2c(c1Cl)OCO2 (stereo not given),inactive: 96%
11,CCOc1cc(C(=O)Nc2ccc3oc(-c4ccc(F)cc4Cl)nc3c2)cc(OCC)c1OCC,inactive: 70%
12,CCCCNC(=O)CCC(=O)NNc1nc2ccccc2c2nc(-c3ccccc3)nn12,inactive: 92%
13,COC(=O)CN1C(=O)C(C)(C)Oc2ccc(C(=O)Nc3cccc(OC)c3)cc21,inactive: 108%
14,COc1cc(C2C(=O)N(C3CCCCC3)CC(=O)N2C2CCCC2)ccc1OC(C)C (stereo not given),inactive: 85%
15,O=C(CSc1nc(-c2ccc(F)cc2)cc(C(F)(F)F)n1)NCc1ccccc1,inactive: 84%
16,COc1ccc(OCC(=O)NCC2(N3CCN(C)CC3)CCCCC2)cc1,inactive: 84%
17,Cc1cc(C)c2[nH]c(=O)c(C(c3nnnn3C(C)(C)C)N(CCc3ccc(F)cc3)Cc3ccco3)cc2c1 (stereo not given),inactive: 117%
18,O=C(NC1CCCCC1)c1ccc(S(=O)(=O)N2CCCC2)cc1,inactive: 104%
19,CCOC(=O)c1ccc2c(c1)N(Cc1cccc(OC)c1)C(=O)c1ccccc1S2(=O)=O,inactive: 99%
20,Cc1cccc(C(=O)Nc2c3c(nn2-c2ccc(Cl)cc2)CS(=O)(=O)C3)c1,inactive: 91%
21,O=[N+]([O-])c1cc(-c2nc(-c3ccccc3)no2)ccc1NCC1CCCO1 (stereo not given),inactive: 86%
22,CCOC(=O)c1c(-c2ccccc2)oc2ccc(NS(=O)(=O)c3ccc(OC)cc3)cc12,inactive: 66%
23,CC(C)(C)OC(=O)N1CCC(c2c(C(=O)NC3CCN(Cc4ccccc4)CC3)cnn2-c2cccc(F)c2)CC1,inactive: 76%

row,Compound,survival
1,CC1CCN(S(=O)(=O)c2ccc(NC(=O)Nc3ccccc3)cc2)CC1,inactive: 59%
2,Cc1ccc(-c2cc(C(=O)NC(C)c3ccccc3)c3ccccc3n2)cc1C (stereo not given),inactive: 60%
3,CC1CCN(c2ccc(NC(=O)c3cccc(Cl)c3)cc2C(=O)O)CC1,inactive: 76%
4,Cc1ccc2ncc(C(=O)NCc3ccccc3Cl)c(=O)n2c1,inactive: 93%
5,CC(=O)Nc1ccccc1-c1nc2ccccc2n(CC(=O)c2ccc(C)c(C)c2)c1=O,inactive: 103%
6,CCC(CC)C(=O)Nc1ccc(OCc2cc(=O)n3ccsc3n2)cc1,inactive: 87%
7,COc1ccc(NC(=O)C2CCCN(C(=O)c3cnn(-c4ccc(F)cc4)c3-n3cccc3)C2)cc1 (stereo not given),inactive: 60%
8,COc1ccc(NC(=O)CSc2nc3ncccc3[nH]2)c(OC)c1,inactive: 119%
9,Cn1c(=O)cc(OCC(=O)N2CCN(c3ccccc3)CC2)c2ccccc21,inactive: 85%
10,CN(C)C(=O)CN1CCN(c2ccc(F)cc2)CC1,inactive: 100%
11,COc1ccc(C)cc1NCc1nnc2n1CCCCC2,active: -3%
12,O=C(CCCCn1c(=O)c2ccccc2n(Cc2ccc(Cl)cc2)c1=O)NCc1ccccc1Cl,inactive: 103%
13,Cc1cc(OC(C)C(=O)N(Cc2ccco2)Cc2ccccc2F)cc(C)c1Cl (stereo not given),inactive: 84%
14,COc1ccc(-c2cc(C(=O)Oc3cccc(C)c3)c3ccccc3n2)cc1,active: 3%
15,Cc1ccc(CCNC(=O)C2CCN(c3nnc(C)c4c(C)n(-c5ccccc5)nc34)CC2)cc1,inactive: 70%
16,Cc1ccc(NC(=O)CSCc2cnn(-c3ccccc3)c2-n2cccc2)c(C)c1,inactive: 106%
17,CCOc1cccc2sc(N(Cc3cccnc3)C(=O)C3CCCCC3)nc12,inactive: 81%
18,CCc1ccccc1NC(=O)c1ccc(F)c(S(=O)(=O)NC2CCCCCC2)c1,inactive: 51%
19,Cc1ccc(NC(=O)CSc2nc3ccccc3c3nc(CCn4cncc4C)nn23)cc1F,inactive: 69%
20,Cc1ccc(C)c(N2CCN(CCCNC(=O)C3COc4ccccc4C3)CC2)c1 (stereo not given),inactive: 82%
21,O=C(Nc1ccccc1)Nc1ccc2c(c1)C(=O)OC2,inactive: 112%
22,CN1CCN(C(c2ccccc2Cl)c2sc3nc(-c4ccco4)nn3c2O)CC1 (stereo not given),inactive: 129%
23,CCC(=O)N1CCc2cc(Br)cc(S(=O)(=O)N3CCN(c4ccc(C(C)=O)cc4)CC3)c21,inactive: 63%

row,Compound,survival
1,Cc1nc(N)sc1C(C)(C)C,inactive: 105%
2,Cc1cccc(NC(=O)c2ccc(C(=O)Nc3cccc(C)c3C)cc2)c1C,inactive: 67%
3,Cc1nnc(NC(=O)CSc2ncccn2)s1,inactive: 102%
4,COc1ccc(C(=O)Nc2ccc3c(c2)N(C)C(=O)c2ccccc2S3)cc1OC,inactive: 75%
5,CCOC(=O)c1cnc2c(C)cc(C)cc2c1Nc1ccc(N2CCOCC2)cc1,inactive: 15%
6,Cc1ccc(-n2nc(C)c(C(=O)NCCCN3CCN(c4ccccc4F)CC3)c2-n2cccc2)cc1,inactive: 129%
7,CCCOc1ccccc1C(=O)Nc1nc2c(s1)CCCC2,inactive: 120%
8,CN(Cc1ccccc1)C(=O)c1ccc2c(c1)N(Cc1ccc(Cl)cc1)C(=O)c1ccccc1S2=O (stereo not given),inactive: 97%
9,Cc1oc(-c2ccc(Cl)cc2)nc1CN1CCCC(C(=O)NCc2ccc(Cl)cc2)C1 (stereo not given),inactive: 85%
10,CC(C)c1ccc(NC(=O)CSC2=Nc3ccccc3C3=NC(CC(=O)NCc4ccco4)C(=O)N23)cc1 (stereo not given),inactive: 72%
11,O=c1c2ccccc2n2c(-c3cccc(F)c3)nnc2n1Cc1ccccc1,inactive: 90%
12,COc1cccc(NS(=O)(=O)c2ccc3[nH]cc(C(=O)N(C)Cc4ccco4)c(=O)c3c2)c1,inactive: 84%
13,CCc1ccccc1N1CC(c2nc3ccccc3n2CCC2CCCCC2)CC1=O (stereo not given),active: 25%
14,CCOC(=O)N1CCN(C(=O)c2cnn(-c3cccc(C)c3)c2-n2cccc2)CC1,inactive: 87%
15,COc1ccc(OC)c(NC(=O)c2cc3c(=O)n4cccc(C)c4nc3n2C)c1,inactive: 83%
16,Cc1cc(SCCOc2ccccc2)nc(N)n1,inactive: 91%
17,CN(C)c1ccc(-c2nc3ccccn3c2Nc2ccc3c(c2)OCCO3)cc1,inactive: 88%
18,Cc1cccc(N2CCN(C(=O)c3c4c(nc5ccccc35)C(=O)N(C3CCCCC3)C4)CC2)c1C,inactive: 128%
19,Cc1ccc(N(C)C(=O)c2noc3c2CCCCC3)cc1C,inactive: 73%
20,Cc1ccc(CC(=O)NCc2nc(-c3cccc(C)c3)no2)cc1,inactive: 93%
21,Cc1cccc(C)c1OCc1cc(=O)n2ccsc2n1,inactive: 81%
22,CC(=O)Nc1ccc(S(=O)(=O)NC(=O)CC(C)C)cc1,inactive: 108%
23,COc1cc(OC)c(NC(=O)C(C)n2nc(-c3ccc(C)c(C)c3)ccc2=O)cc1Cl (stereo not given),inactive: 61%

row,Compound,survival
1,COc1cc(OC)cc(C(=O)Nc2ccc(O)c(-c3nc4cc(C)c(C)cc4o3)c2)c1,inactive: 98%
2,COc1cccc(NC(=O)CSc2nnc(NC(=O)NC3CCCCC3)s2)c1,inactive: 63%
3,COc1cccc(C(=O)c2cn(CC(=O)Nc3cccc(Cl)c3C)c3nc(C)ccc3c2=O)c1,inactive: 74%
4,O=C(Cn1c(=O)c2sccc2n(CC(=O)Nc2ccc(Cl)cc2Cl)c1=O)NCCc1ccccc1,inactive: 106%
5,Cc1ccc(NC(=O)N2CCc3c([nH]c4ccccc34)C2c2ccccc2F)c(Cl)c1 (stereo not given),inactive: 82%
6,CCCN1Cc2cccc(C(=O)Nc3ccc(OC)cc3OC)c2C1=O,inactive: 87%
7,COCCN1C(=O)c2oc3ccc(C)cc3c(=O)c2C1c1ccc(C(=O)OC)cc1 (stereo not given),inactive: 73%
8,CSc1ncc(C(=O)NCc2cccc(Br)c2)c(-c2ccccc2)n1,inactive: 77%
9,O=C(CSc1nc(-c2ccccc2)cc(=O)[nH]1)Nc1ccccc1,inactive: 102%
10,O=C(NCc1ccccc1F)C(=O)NCC(c1ccco1)S(=O)(=O)c1ccccc1 (stereo not given),active: -6%
11,Cc1ccc(C)c(NS(=O)(=O)c2ccc3c(c2)CCCN3C(=O)C2CCC2)c1,inactive: 94%
12,Cc1ccc(C(C)C)c(OCC(=O)Nc2ccc(-c3nc4ncccc4o3)cc2C)c1,inactive: 69%
13,COC(=O)c1c(NC(=O)CCCOc2ccccc2C)sc2c1CCC2,active: 4%
14,O=C(NCCCO)c1ccc(CSc2nc3ccccc3c(=O)[nH]2)cc1,inactive: 105%
15,COc1ccc(CNS(=O)(=O)c2ccc3c(c2)C(C)(C)C(=O)N3C)cc1OC,inactive: 64%
16,COc1ccc(C(C(=O)NCc2ccccc2)N(C(=O)Cn2nnc3ccccc32)c2ccc(OC)cc2)cc1 (stereo not given),inactive: 95%
17,COC(=O)c1ccc2c(c1)n(CCO)c(C)[n+]2CCO,inactive: 97%
18,Cc1ccc(CCNC(=O)c2ccc(CNS(=O)(=O)c3ccc(F)cc3)cc2)cc1,inactive: 72%
19,COC(=O)c1cc2sc(Cl)cc2n1Cc1nc(-c2ccccc2F)oc1C,inactive: 122%
20,Cc1cccc(N2CCN(C(=O)c3cccc(-n4c(C)nc5cccnc54)c3)CC2C)c1 (stereo not given),inactive: 74%
21,Cc1c(C(=O)Nc2ccccc2Cl)oc2ccc(S(=O)(=O)N3CCCCCC3)cc12,inactive: 83%
